# Article PMC4336329 (PLoS ONE, 2015)
# Out of some 310,000 compounds screened, about 2,200 (0.71%) showed an effect of 50% or more. Effects have a minus sign here. Some of the results follow.
# Target: human ether-à-go-go-related gene (hERG) potassium channel (human, UniProt Q12809)
# Assay: primary screen, population patch clamp on CHO cells stably expressing hERG
# Chain of human ether-à-go-go-related gene (hERG) potassium channel (Q12809 whole entry, looked up): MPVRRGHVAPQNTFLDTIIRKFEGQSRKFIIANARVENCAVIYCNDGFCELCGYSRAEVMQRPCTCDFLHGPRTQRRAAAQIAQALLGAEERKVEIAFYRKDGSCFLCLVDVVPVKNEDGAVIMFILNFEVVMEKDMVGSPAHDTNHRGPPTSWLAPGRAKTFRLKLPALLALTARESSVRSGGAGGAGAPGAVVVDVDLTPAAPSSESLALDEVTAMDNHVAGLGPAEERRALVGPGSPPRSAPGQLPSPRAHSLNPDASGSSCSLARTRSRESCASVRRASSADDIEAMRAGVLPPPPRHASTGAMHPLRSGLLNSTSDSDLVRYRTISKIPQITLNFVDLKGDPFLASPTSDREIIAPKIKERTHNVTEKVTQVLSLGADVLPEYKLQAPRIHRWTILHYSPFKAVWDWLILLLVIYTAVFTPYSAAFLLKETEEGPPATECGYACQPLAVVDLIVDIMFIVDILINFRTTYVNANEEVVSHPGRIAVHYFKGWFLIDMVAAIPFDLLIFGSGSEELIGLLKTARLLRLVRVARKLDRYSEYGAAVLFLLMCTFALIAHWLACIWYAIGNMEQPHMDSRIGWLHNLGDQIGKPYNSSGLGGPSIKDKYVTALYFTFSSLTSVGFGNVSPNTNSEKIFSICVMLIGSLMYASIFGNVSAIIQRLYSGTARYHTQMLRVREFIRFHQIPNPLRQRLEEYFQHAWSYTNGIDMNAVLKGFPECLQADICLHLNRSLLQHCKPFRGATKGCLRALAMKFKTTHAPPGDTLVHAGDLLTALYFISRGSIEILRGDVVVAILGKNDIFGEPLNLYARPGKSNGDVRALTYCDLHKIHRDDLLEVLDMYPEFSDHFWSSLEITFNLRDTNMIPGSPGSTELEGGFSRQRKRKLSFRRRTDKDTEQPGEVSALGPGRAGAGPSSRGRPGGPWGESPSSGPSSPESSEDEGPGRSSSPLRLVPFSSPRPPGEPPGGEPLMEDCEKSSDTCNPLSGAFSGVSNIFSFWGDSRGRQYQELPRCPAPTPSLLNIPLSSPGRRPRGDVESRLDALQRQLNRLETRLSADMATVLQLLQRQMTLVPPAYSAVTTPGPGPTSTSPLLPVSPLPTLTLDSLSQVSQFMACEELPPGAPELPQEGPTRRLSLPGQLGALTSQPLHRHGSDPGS
row,SMILES,"hERG current change (%, negative = inhibition) at 1uM"
1,O=C(NC(=S)Nc1cccc(S(=O)(=O)NC2=NCCC2)c1)c1cc(-c2ccco2)nc2ccccc12,9.95%
2,O=C(O)CCCNc1c(C(=O)Nc2ccc(Cl)cc2)cc([N+](=O)[O-])cc1[N+](=O)[O-],16%
3,CCN(CC)c1nc(N)n(CCSC(=S)N(C)C)c(=O)n1,9.61%
4,Fc1ccccc1NC(=S)Nc1cccnc1,11.8%
5,Cc1cc(C(=O)CSc2nc3ccccc3[nH]2)c(C)n1CC1CCCO1 (stereo not drawn),2.17%
6,O=C(C1CCC(=O)N(C2CCCC2)C1)N1CCC(Oc2ccccc2Cl)CC1 (stereo not drawn),-25%
7,O=C(NNS(=O)(=O)c1ccc([N+](=O)[O-])cc1)c1ccncc1,12.3%
8,O=C(Cc1ccccc1)N1CCN(Cc2cccc(Br)c2)CC1.O=C(O)C(=O)O,4.34%
9,O=C(c1ccccc1Br)N1CCN(c2ccccn2)CC1,11.1%
10,CCn1nnnc1SCC(=O)N(C)C1CCS(=O)(=O)C1 (stereo not drawn),2.32%
11,Cc1cc(C)cc(NC(=S)N2CCN(c3ncccn3)CC2)c1,1.28%
12,COC(=O)c1ccc(/C=C2/SC(=S)N(CCCC(=O)Nc3ccccn3)C2=O)cc1,14.4%
13,N#C/C(=C\c1cn(Cc2ccccc2)c2ccccc12)C(=O)NCc1ccco1,8.94%
14,CCc1sc(C(=O)N2CCN(c3ncccn3)CC2)cc1Br,11.2%
15,Fc1ccc2c(c1)C(c1ccncc1)=NNC(c1ccccc1)=N2,3.67%
16,Cc1ccc(-n2c(SCC(=O)Nc3ccc4c(c3)OCO4)nnc2-c2cccs2)cc1,3.18%
17,O=C(COc1ccccc1)NCCSCc1ccccc1Cl,10.9%
18,Cc1ccc(Cn2c(CN3CCOCC3)nc3c2c(=O)n(C)c(=O)n3C)cc1,3.22%
19,CN1CCN(C(=O)c2cnn3c(C(F)F)cc(C4CC4)nc23)CC1,6.87%

row,SMILES,"hERG current change (%, negative = inhibition) at 1uM"
1,CCOc1ccc(C(=O)Nc2ccc3c(c2)C(=O)NC3=O)cc1,18.4%
2,COc1ccc(-n2c(C)nc3c(cnn3-c3ccccc3)c2=O)cc1,-5.06%
3,COc1cc(C(=O)OCC(=O)N2CCC(Cc3ccccc3)CC2)cc(OC)c1OC,13.4%
4,COc1ccc(-c2cc(=NC(CC(C)C)C(=O)O)c3cc(C)ccc3o2)cc1 (stereo not drawn),-3.35%
5,CC(=O)c1ccc(Oc2ncnc3sccc23)cc1,12.7%
6,COc1ccc(C[C@H]2CN3C(=NC[C@@H]3Cc3ccc(O)cc3)N2C[C@H](C)NC(=O)c2ccc(C)c(Br)c2)cc1,-60.1%
7,COc1cccc(CN2C(=O)CCC2(C)C(=O)NCCc2ccc(OC)c(OC)c2)c1 (stereo not drawn),1.35%
8,C=CCC(NCCCO)c1cccc(OC)c1OC.Cl (stereo not drawn),9.83%
9,CCc1sc(N)nc1-c1ccccc1,11.5%
10,C=CCOc1ccccc1/C=N/NC(=O)Cc1ccccc1,14.3%
11,COc1ccc(C(=O)NCC(=O)N/N=C/c2cccnc2)cc1OC,17.4%
12,C=CCOc1c(Br)cc(/C=N/NC(N)=O)cc1OC,0.552%
13,O=C(Nc1cccc(C(F)(F)F)c1)C(Sc1ncnc2ccccc12)c1ccccc1 (stereo not drawn),10.2%
14,CCCn1c(SCC(=O)NC2CCCC2)nc2c1c(=O)n(C)c(=O)n2C,-4.32%
15,CSc1sc(C(=O)NN)c2c1C(O)CCC2 (stereo not drawn),11.2%
16,CCOc1ccccc1OCCCCCc1c(C)n[nH]c1C,12.7%
17,CN(C)CCCOC(=O)c1ccc(Br)cc1,-6.15%
18,COc1ccc2c(c1OC)C(=O)N(c1ccc(O)cc1)C2=O,8.72%
19,O=C(NCc1ccco1)C(c1cccs1)N(C(=O)Cc1cccs1)c1ccccc1 (stereo not drawn),10.4%

row,SMILES,"hERG current change (%, negative = inhibition) at 1uM"
1,O=S(=O)(c1ccc2nc(Cc3cccc(C(F)(F)F)c3)[nH]c2c1)N1CCOCC1,7.9%
2,CCC1(CC)NC(=O)N(CC(=O)Nc2sc3c(c2C(N)=O)CCC3)C1=O,3.78%
3,C=CCCCCCCCCc1nc(SCC(C)=O)n[nH]1,13.5%
4,COc1ccc(CCNC(=O)CCc2ccc(OC)cc2)cc1,8.65%
5,O=C1CN(C(=O)NCC(=O)N[C@@H](Cc2ccccc2)C(=O)O)c2ccccc2N1,11.4%
6,Cc1ccc(C(=O)Nc2ccccc2C(=O)N2CCOCC2)cc1[N+](=O)[O-],2.39%
7,COc1ccc(S(=O)(=O)N2CCC(C(=O)N(CC(C)C)C3CCS(=O)(=O)C3)CC2)cc1OC (stereo not drawn),8.42%
8,CCOc1ccccc1N1CC(C(=O)N(Cc2nnc(-c3ccccc3Cl)o2)C2CC2)CC1=O (stereo not drawn),6.5%
9,CCn1c(O)c(C=NC2CCCC2)sc1=S,-6.55%
10,CC1CC1C(=O)OCC(=O)NCc1ccc(Cl)cc1Cl (stereo not drawn),2.41%
11,Cn1c(=O)c2c(nc(NCCc3ccccc3)n2Cc2ccc(F)cc2)n(C)c1=O,-0.534%
12,O=C(CCCc1ccccc1)Nc1ccc(Br)cc1F,14.5%
13,CS(=O)(=O)N(CC(=O)N/N=C/c1ccco1)c1ccccc1Br,9.55%
14,C/C(CC(O)c1ccc2ccccc2n1)=N/O (stereo not drawn),-3.1%
15,CCOc1ccc2c(c1)cc(CN(C(=O)CC)C1CCCCC1)c1nnnn12,-3.42%
16,CCC1(c2ccccc2)NC(=O)N(CC(=O)N2CCN(S(=O)(=O)c3ccccc3)CC2)C1=O (stereo not drawn),9.63%
17,Cc1ccc(Sc2c(C)[nH]n(C(C)(C)C)c2=O)cc1,3.61%
18,Cc1cc(N2C(=O)C(O)=C(C(=O)c3cc4ccccc4o3)C2c2ccc(Br)cc2)no1 (stereo not drawn),13.4%
19,S=C(N/N=C/c1ccc(Cl)c(Cl)c1)Nc1ccccc1Cl,1.92%
